Experimental data as given in PubChem BioAssay AID1794842 (National Center for Advancing Translational Sciences (NCATS), 2023).
In all, about 2,800 compounds went through this assay and fewer than 10 were called active. Calls come from the whole dose curve; as a rule, active = well fitted curve in the direction sought with a large enough effect; inconclusive = small, poorly fitted or top-dose-only effect, or another doubt; inactive = no such curve, though single readings can be large or run the other way. The list shows a part of the results.

These compounds were tested against Metallo-beta-lactamase type 2 (Klebsiella pneumoniae) (UniProt C7C422) (assay: qHTS to identify inhibitors of the New Delhi Metallo-beta-lactamase (NDM): Meropenem screen against the machine-based learning selections.). Conditions: Purified NDM-1, meropenem hydrolysis, absorbance 300 nm; at 38.4 µM (top of the series) unless noted.
Summary of the method: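 NDM-1 (2 nM final) in 50 mM HEPES pH 7.0, 1 uM Zn2SO4, 0.01% Tween20 was preincubated with compounds for >30 min. Nitrocefin (16.7 uM final) was read at 485 nm after 15 min, and meropenem (50 uM final) at 300 nm after 30 min.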
Note: % of control where 0% means no effect.

Sequence of UniProt C7C422 (C7C422 whole entry, looked up): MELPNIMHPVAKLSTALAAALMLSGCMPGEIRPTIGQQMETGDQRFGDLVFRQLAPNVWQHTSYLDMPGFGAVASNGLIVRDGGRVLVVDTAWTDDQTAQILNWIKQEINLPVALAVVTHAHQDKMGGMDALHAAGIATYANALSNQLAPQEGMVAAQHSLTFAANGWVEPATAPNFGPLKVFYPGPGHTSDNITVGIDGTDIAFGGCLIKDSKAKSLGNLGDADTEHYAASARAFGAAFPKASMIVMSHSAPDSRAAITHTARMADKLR

Activity change, negative = inhibition, inactive:
CC(C)CN(Cc1cccnc1)C1CN(C(=O)CC2CCCCC2)C1 0.143%, Cc1cc2ncc(C(=O)N3CCCn4nc(CCC(=O)O)cc4C3)c(=O)n2[nH]1 63.5%, CC(C)CS(=O)(=O)N[C@H](C)c1onc(-c2ccc(Cl)cc2)c1C(=O)O 4.76% [at 57.5 µM], CN1CCC(N2CCC(O)(c3csc(CN4CCc5ccccc5C4)n3)CC2)CC1 -4.47% [at 57.5 µM], Fc1ccc2cnc(N3CCC(N[C@H]4C[C@@H]5OCC[C@H]45)CC3)nc2c1 -0.366%, Nc1n[nH]c(CNc2cc(-c3ccc(F)cc3)nc3ccnn23)n1 9.82%, O=C(Cc1c[nH]c2ncc(-c3cccnc3)cc12)Nc1ccc(F)cc1 2.22% [at 57.5 µM], O=C(NC1CC(=O)N(CCc2cccc(Cl)c2)C1)c1ccsc1 (stereo not given) -1.78%, C#CCN(C)Cc1nc(C2(O)CCN(C(=O)NCC=C)CC2)cs1 3.22% [at 57.5 µM], Cc1cc(C)c(CNC(=O)c2nc(-c3ccc(CN(C)C)cc3)cc3[nH]ccc23)c(=O)[nH]1 1.61% [at 57.5 µM], COCCOC1CN(C2CCN(C(=O)c3ccc(OC)cc3)CC2)C12CCCCC2 (stereo not given) -0.797%, CN(c1ccccc1)c1ccc2nnc(-c3cc(C(=O)NC4CCC(O)CC4)ccn3)n2n1 (stereo not given) -0.152%, COc1ccccc1C(=O)Nc1ccc([C@H]2OCC(=O)N(Cc3cccnc3)[C@@H]2CO)cc1 8.72%, CCOCC(=O)N1CCCC(c2cc(N3CCOCC3)nc(C)n2)C1 (stereo not given) 0.366%, CN(Cc1cccc(C(F)(F)F)c1)Cc1nc(-c2ccccc2)no1 -5.66%, O=C(c1cccc(Cl)c1)N1C[C@@H](CO)[C@H](c2ccccn2)C1 -2.41%, CC(=O)N1CCCC(C(=O)NCCc2csc(-c3ccncc3)n2)C1 (stereo not given) 2.86%, C[C@]1(O)CCN(C(=O)CCc2c[nH]c3ccccc23)C[C@@H]1O -2.65%, O=C(Cc1c[nH]c2ncc(-c3cccc(Cl)c3)cc12)NCc1cccnc1 5.32% [at 57.5 µM], CC1=C[C@@H](CN2CCN(c3cnccn3)CC2)[C@H](C(C)C)C[C@H]1Cc1nnc(-c2cccnc2)o1 15.1%, COCCN[C@@H]1C[C@@H]2c3[nH]c4ccccc4c3C[C@@H](C(=O)OC)N2[C@H](c2ccc(C(C)C)cc2)C1 0.489%, COc1ccc(CN2C(=O)[C@@H]3C[C@@H](CN3CC3CC3)Oc3ccccc32)cc1 -1.86% [at 57.5 µM], CC(C)CCNC1(Cc2cc(CN3CCOCC3)on2)COC1 8.33% [at 57.5 µM], COc1ccc(C(=O)N2CCc3nc(N)nc(N4CCCC4)c3CC2)o1 4.91%, Cn1ccnc1CN[C@@H]1CO[C@H](CNC(=O)CC(C)(C)C)[C@H]1O 28.5% [at 57.5 µM], N#Cc1cccc(CN2CCOC[C@H]2c2ncc(-c3ccc(C(F)(F)F)cc3)[nH]2)c1 2.14% [at 57.5 µM], Cc1nn2c(c1-c1ccccc1C(N)=O)N(CCCc1ccccc1)CCC2 51.6% [at 57.5 µM], CCOc1ccc(C(=O)NC2CCCN(c3cc(-c4ccc(OC)cc4)[nH]n3)C2)cc1OCC (stereo not given) 2.21%, C[C@@]12CO[C@@H](Cc3ccccc3)O[C@@H]1CC[C@]1(C)C2CC[C@@H](O)[C@H]1CC(=O)NCc1cc(F)cc(F)c1 (stereo not given in full) 0.763%, CCc1noc(-c2cccn3c(CNC(=O)Cc4c[nH]c5ccccc45)nnc23)n1 0.399%, O=C1Cc2c(-c3ccc4ccccc4c3)n[nH]c2CN1Cc1ccccn1 7.75% [at 57.5 µM], COCCNC(=O)C[C@@H]1C[C@H]2O[C@H](CNCc3cnccc3C(F)(F)F)[C@@H](O)[C@H]2O1 1.44% [at 57.5 µM], CN1CCC(N2CC[C@H](c3nnc(-c4ccc(N(C)C)cc4)o3)C2)CC1 4.8% [at 57.5 µM], COCCOc1ccnc(-c2noc([C@@H]3CCCN3Cc3cccnc3)n2)c1 2.36% [at 57.5 µM], Cc1ccc(C2(O)CCN(C(=O)c3ccccc3-c3nn[nH]n3)CC2)nc1 19.2%, Nc1nc(C2CC(O)C2)cc(N2CCC(OCc3ccccn3)CC2)n1 (stereo not given) 3.6e-06%, COc1cccc([C@@H]2CCN(Cc3cn[nH]c3C(=O)O)C[C@H]2O)c1 9.53%, C#CCN(C)C(=O)c1c(-c2ccc(OC)cc2)noc1[C@H](C)O 12.3% [at 57.5 µM], O=C(O)[C@]12CCCN[C@@H]1CCN(Cc1cnc(-c3ccccn3)nc1)C2 23.1%, COCCN1C(=O)CCc2cc(NC(=O)c3ccc(C)c(C)c3)ccc21 10.8%, COc1ccc(CN(Cc2ccc(OC)cc2)[C@@H]2CO[C@H](CNC(=O)CC(C)(C)C)[C@H]2O)cc1 0.0317%, CC(=O)NC[C@@H]1C=C(C)[C@H](CC(=O)N2CCCC2)C[C@H]1C(C)C 1.7% [at 57.5 µM], CC1(C)C[C@H](NC(=O)c2ccccc2)[C@@]2(CCC(=O)NCc3cccnc3)CC[C@](C)(O)C[C@@H]12 0.171%, O=C1Cc2c(-c3cccc4ccccc34)n[nH]c2CN1CCc1ccncc1 15.1% [at 57.5 µM], CN1C[C@H](C(=O)NCc2ccccc2)C[C@H]1c1cccc(C(F)(F)F)c1 -1.01% [at 57.5 µM], CC(C)(O)C#Cc1ccc(C(=O)N2CCC(O)(c3ccccn3)CC2)cc1 0.364%, c1ccc(-c2nc3c(c(NCC4OCCc5ccccc54)n2)CCNCC3)nc1 (stereo not given) 68.4%, CCCOc1cc(C)c2c(c1C)C[C@H]([C@H](C)C(=O)NCCOC)CC2 4.67% [at 57.5 µM], COc1ccccc1-c1ccnc(N[C@H]2CO[C@H]3[C@@H]2OC[C@@H]3NS(=O)(=O)c2ccc3ccccc3c2)n1 -2.23%, COc1cc(CNC(=O)CCC2CCN(S(=O)(=O)c3ccccc3)CC2)cc(OC)c1 -0.0165%, COCCNc1ncccc1-c1cc(-c2ccccc2)nc2c(C)noc12 -0.683% [at 57.5 µM], CCC(NC(=O)c1cc(Cn2ccc3ccccc32)[nH]n1)c1ncccc1C (stereo not given) -0.91%, O=C(O)[C@H]1C[C@@H](C(=O)NCc2ccccn2)CN(CC2CC2)C1 22.1%, O=C([C@H]1C[C@@H](O)[C@H](O)[C@@H]2N=C(Nc3ccc(Cl)cc3)S[C@@H]21)N1CCOCC1 -0.168% [at 57.5 µM], CNC(=O)[C@H]1C[C@H](Oc2cccnc2)CN1S(=O)(=O)c1ccc(OC)cc1 1.89%, OCC#Cc1ccc(CN2CCC3(CCNCC3)C2)cc1 9.07%, COc1ccc(-c2cn3c(n2)CO[C@@H](CNCc2ccc(Cl)cc2)C3)cc1 2.33% [at 57.5 µM], C[C@@H](NC(=O)c1ccccn1)c1onc(-c2ccc(Cl)cc2)c1C(=O)O 60.9% [at 57.5 µM], O=C(NCc1ccccc1)O[C@H]1COCCN(c2nc3ccccc3o2)C1 0.432% [at 57.5 µM], COc1ccc(-c2cnc3[nH]cc(CC(=O)Nc4ccncc4)c3c2)cc1 6.31% [at 57.5 µM], COc1ccc(NC(=O)N[C@H]2CO[C@H]3[C@@H]2OC[C@@H]3n2nnnc2-c2ccc3c(c2)OCO3)cc1 4.93%, COc1cccc(NC(=O)CCc2ccc3c(c2)CN(S(C)(=O)=O)CCO3)c1 0.177%, O=C(C1CC1)N1CCC2(CC1)CCN(CCc1ccccc1)c1ccccc1O2 -0.12%, NC(=O)CN1CCC2(CC1)CCN(C(=O)Cc1cnc[nH]1)CC2CO (stereo not given) -1.94%, O=C(O)c1ccnc(-c2ccnc(NCCCN3CCCC(O)C3)n2)c1 (stereo not given) 34.1%, O=C(COc1ccccc1)N[C@H]1CO[C@H]2[C@@H]1OC[C@@H]2n1nnnc1Oc1ccc2c(c1)OCO2 -0.427%, COC[C@H]1C[C@@H](NC(=O)c2cc(C(C)(C)C)oc2C)[C@H](O)[C@@H]1O 11.3% [at 57.5 µM], CC(O)c1cc2n(n1)CCN(C1CCN(C(=O)c3cnccn3)CC1)C2 (stereo not given) 2.84%, Cc1ncsc1C(=O)N1CCCC(c2ccc(C(=O)O)cc2)C1 (stereo not given) -2.23%, CC1(C(=O)NCCCn2ccnc2)CCCc2cnc(Nc3ccccc3)nc21 (stereo not given) 3.8% [at 57.5 µM], COc1ccc(CN2C(=O)[C@@H]3C[C@@H](O)CN3C3(CN(C4CCC4)C3)C2=O)cc1 1.51% [at 57.5 µM], COc1ccc(C(=O)N[C@H]2CO[C@H]3[C@@H]2OC[C@@H]3n2cc(CN(C)Cc3ccccc3)nn2)cc1 -0.423%, CN1C[C@@H](NS(=O)(=O)c2ccc(Cl)cc2)C[C@H]1c1nc(-c2ccc(F)cc2)no1 0.972%, NC(=O)[C@H](Cc1ccc(O)cc1)NC(=O)C1=C[C@@H](NC(=O)Nc2ccc(OC(F)(F)F)cc2)[C@@H](O)[C@H](O)C1 -0.0211%, CC(C)(C)c1ccc(C(=O)Nc2nc3c(s2)C[C@@H]2[C@](C)(CO)[C@H](O)CC[C@@]2(C)[C@@H]3CC(=O)NC2CC2)cc1 1.17%
